From the supplement of paper PMC4967469

What was measured:
Test in all cases: Viability of human cancer cell lines after 72 h of drug (GDSC screen)
Wee1 inhibitor 681640 = compound: O=C1NC(=O)c2c1c(-c1ccccc1Cl)cc1[nH]c3ccc(O)cc3c21 [Wee1 inhibitor 681640]; settings: top dose 2 µM; top dose inferred
Procedure: (§1)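 Human cancer cell lines in 384-well plates, medium with 10% serum, drug for 72 h over a 256-fold dose range (nine 2-fold or five 4-fold steps up to the top dose). Adherent lines were fixed and stained with the nucleic acid dye Syto60, suspension lines read with resazurin; signal relative to control wells, capped at 0 and 100%. One two-parameter sigmoid per drug and line, fitted in a mixed model over all curves with the slope shared within a line.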

CGP-082996 (CINK4) = compound: CCNc1cc(NC2CCC(O)CC2)nc(Nc2ccc3c(ccn3Cc3ccccc3)c2)n1 [CGP-082996 (CINK4)]; settings: top dose 5.12 µM; top dose inferred
Procedure: as §1

A-770041 = compound: COc1cc(-c2nn([C@H]3CC[C@H](N4CCN(C(C)=O)CC4)CC3)c3ncnc(N)c23)ccc1NC(=O)c1cc2ccccc2n1C [A-770041]; settings: top dose 5.12 µM; top dose inferred
Procedure: as §1

VX-702 = compound: NC(=O)c1ccc(N(C(N)=O)c2c(F)cccc2F)nc1-c1ccc(F)cc1F [VX-702]; settings: top dose 2 µM; top dose inferred
Procedure: as §1

BMS-536924 = compound: Cc1cc(N2CCOCC2)cc2[nH]c(-c3c(NC[C@@H](O)c4cccc(Cl)c4)cc[nH]c3=O)nc12 [BMS-536924]
Procedure: as §1

SB-525334 = compound: Cc1cccc(-c2[nH]c(C(C)(C)C)nc2-c2ccc3nccnc3c2)n1 [SB-525334]; settings: top dose 20 µM; top dose inferred
Procedure: as §1

Shikonin = compound: CC(C)=CC[C@@H](O)C1=CC(=O)c2c(O)ccc(O)c2C1=O [Shikonin]; settings: top dose 16 µM; top dose inferred
Procedure: as §1

XMD8-85 = compound: COc1cc(N2CCN(C)CC2)ccc1Nc1ncc2c(n1)N(C)c1ccccc1C(=O)N2C [XMD8-85]; settings: top dose 8 µM; top dose inferred
Procedure: as §1

Olaparib = compound: O=C(c1cc(Cc2n[nH]c(=O)c3ccccc23)ccc1F)N1CCN(C(=O)C2CC2)CC1 [Olaparib]
Procedure: as §1

HG-5-113-01 = compound: CNC(=O)c1ccc(Nc2cc(Nc3ccccc3S(=O)(=O)C(C)C)c3cc[nH]c3n2)nc1 [HG-5-113-01]; settings: top dose 10 µM; top dose inferred
Procedure: as §1

BIRB 0796 = compound: Cc1ccc(-n2nc(C(C)(C)C)cc2NC(=O)Nc2ccc(OCCN3CCOCC3)c3ccccc23)cc1 [BIRB 0796]; settings: top dose 10 µM; top dose inferred
Procedure: as §1

[1] = top dose 4 µM, screen: GDSC drug entry 1091, top dose inferred
[2] = top dose 5.12 µM, screen: GDSC drug entry 62
[3] = top dose 5 µM, screen: GDSC drug entry 1017, top dose inferred
[4] = top dose 10 µM, screen: GDSC drug entry 1495

In the case of GI-1 (glioma, adherent), the AUC (Wee1 inhibitor 681640) is reported as 0.925, the IC50 (Wee1 inhibitor 681640) is reported as > 2 µM and the AUC (CGP-082996 (CINK4)) is reported as 0.781. For the same cell line, the IC50 (CGP-082996 (CINK4)) was 2.03 µM, the AUC (A-770041) was 0.773 and the IC50 (A-770041) was 1.9 µM. For the same cell line, the AUC (VX-702) was 0.964, the IC50 (VX-702) was > 2 µM and the AUC (BMS-536924; [1]) was 0.927. The IC50 (BMS-536924; [1]) was > 4 µM, the AUC (BMS-536924; [2]) was 0.677 and the IC50 (BMS-536924; [2]) was 0.974 µM. The AUC (SB-525334) was 0.885, the IC50 (SB-525334) was > 20 µM and the AUC (Shikonin) was 0.407. For the same cell line, the IC50 (Shikonin) was 0.562 µM, the AUC (XMD8-85) was 0.864 and the IC50 (XMD8-85) was 6.5 µM. For the same cell line, the AUC (Olaparib; [3]) was 0.943, the IC50 (Olaparib; [3]) was > 5 µM and the AUC (Olaparib; [4]) was 0.875. For the same cell line, the IC50 (Olaparib; [4]) was 9.14 µM, the AUC (HG-5-113-01) was 0.66 and the IC50 (HG-5-113-01) was 1.7 µM. The AUC (BIRB 0796) was 0.969 and the IC50 (BIRB 0796) was > 10 µM.

For GI-ME-N (neuroblastoma, adherent), the AUC (Wee1 inhibitor 681640) was 0.854, the IC50 (Wee1 inhibitor 681640) was > 2 µM and the AUC (CGP-082996 (CINK4)) was 0.93. The IC50 (CGP-082996 (CINK4)) was > 5.12 µM, the AUC (A-770041) was 0.626 and the IC50 (A-770041) was 0.808 µM. The AUC (VX-702) was 0.977, the IC50 (VX-702) was > 2 µM and the AUC (BMS-536924; [1]) was 0.791. The IC50 (BMS-536924; [1]) was 2.57 µM, the AUC (BMS-536924; [2]) was 0.695 and the IC50 (BMS-536924; [2]) was 1.39 µM. For the same cell line, the AUC (SB-525334) was 0.645, the IC50 (SB-525334) was 3.65 µM and the AUC (Shikonin) was 0.42. For the same cell line, the IC50 (Shikonin) was 0.557 µM, the AUC (XMD8-85) was 0.589 and the IC50 (XMD8-85) was 0.96 µM. For the same cell line, the AUC (Olaparib; [3]) was 0.934, the IC50 (Olaparib; [3]) was > 5 µM and the AUC (Olaparib; [4]) was 0.747. For the same cell line, the IC50 (Olaparib; [4]) was 4.23 µM, the AUC (HG-5-113-01) was 0.598 and the IC50 (HG-5-113-01) was 1.28 µM. For the same cell line, the AUC (BIRB 0796) was 0.966 and the IC50 (BIRB 0796) was > 10 µM.

A lower IC50 marks a more sensitive line; where the fit passes the top or lowest dose, that dose stands as a limit. AUC, from the same fit, is the share of area under the viability curve across the 256-fold dose range: 1 means no effect, lower means more sensitive. Where the top dose is marked as inferred, it was calculated from the reported fits. For some of these results: An entry number marks a drug with two screens in the source, which often give different values.
